PubChem BioAssay AID485364 (National Center for Advancing Translational Sciences (NCATS), 2010)
Screen size: about 360,000 compounds; about 11,000 (3.1%) were called active. Inconclusive means that the source gave no clear call. Such entries were picked first, then a sample of the others. The call rests on the fitted dose curve; in most records, active means well fitted inhibition curve with a large enough effect; inconclusive means small, poorly fitted or top-dose-only effect; inactive means no such curve, though single readings can be large or run the other way. No potency is given beside an inconclusive call; the fits are too rough.

biological target: Schistosoma mansoni thioredoxin glutathione reductase (TGR) (UniProt Q962Y6); assay: qHTS Assay for the Inhibitors of Schistosoma Mansoni Peroxiredoxins; conditions: purified TGR, DTNB reduction, TNB absorbance 405 nm; series mostly up to 114 µM; further: nearly all actives have a fitted effect of over 60% in size
How it was run: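 TGR 20 nM + NADPH 100 uM (dispensed conc.), cpd preinc 15 min RT; start with NADPH (500 uM addition) then DTNB (15 mM addition). Kinetic TNB absorbance, 405 nm filter. Four-parameter Hill fit across titration.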
Potency means the concentration at half of the fitted maximal effect; tags describe the fitted curve by direction and shape.

Row | Structure (SMILES) | Potency
1 | COCCN1C(=O)C(CC(=O)Nc2ccc(C(=O)O)cc2)SC1=Nc1ccccc1 (centres undefined) | inconclusive [inhibitor, partial curve]
2 | COc1ccc(CCn2c(=S)[nH]c3ccc(N4CCOCC4)cc3c2=O)cc1OC | inconclusive [inhibitor, partial curve]
3 | O=C(Cn1nnc(-c2ccc(Cl)cc2)n1)NCc1ccco1 | inconclusive [inhibitor, partial curve]
4 | COc1cc(/C=C/C(=O)O)cc(S(=O)(=O)N2CCc3ccccc32)c1OC | inconclusive [inhibitor, single point]
5 | COC(=O)c1cccc(-n2c(CCC(=O)O)ccc2-c2ccc(OC)cc2)c1 | active: 12.6 µM
6 | CCOC(=O)C1CCN(C(=O)C(C)N(c2ccc(Oc3ccccc3)cc2)S(C)(=O)=O)CC1 (centres undefined) | inactive
7 | COc1ccc(/C(C)=N/Nc2cccc(C(=O)O)c2)cc1OC | inconclusive [inhibitor, partial curve]
8 | CCOC(=O)c1cc2c(C)[nH]c(C)c2cc(C(=O)OCC)c1=O | inconclusive [inhibitor, single point]
9 | COc1cc(-c2nc(S(=O)(=O)c3ccc(Cl)cc3)c(N(C)C)o2)cc(OC)c1OC | active: 25.1 µM
10 | CSc1ncc(CN2CCc3c([nH]c4ccccc34)C2C(C)(C)C)cn1 (centres undefined) | inconclusive [inhibitor, full curve, poor fit]
11 | O=C(NCc1ccco1)c1cc2c(s1)CCCCC2 | inconclusive [inhibitor, full curve]
12 | O=C(CCC(=O)NNC(=O)Nc1ccc(Cl)cc1)NCc1ccccc1 | inconclusive [inhibitor, single point]
13 | O=C1NC(=O)C(=Cc2ccc(-c3ccc(Cl)cc3)o2)C(=O)N1 | inconclusive [inhibitor, partial curve]
14 | Cc1ccc(S(=O)(=O)N2CCN(C(=O)CSc3ncc(C(F)(F)F)cc3Cl)CC2)cc1 | active: 35.5 µM
15 | Cc1ccc(C2=N/C(=C\N3CCCCC3)C(=O)O2)cc1 | inactive
16 | CCOc1ccc(OC(=O)c2cn(-c3ccc(C)cc3)c(=O)c3ccccc23)cc1 | inconclusive [inhibitor, partial curve]
17 | Cc1csc(NC(=O)CCC(=O)c2cccs2)n1 | inactive
18 | O=C(N/N=C/c1c(O)n(-c2ccc(Cl)cn2)c(=O)c2ccccc12)c1ccncc1 | inactive
19 | CCCOc1cccc(C(=O)Nc2cccc(NC(=O)c3ccc(C(C)(C)C)cc3)c2)c1 | inconclusive [inhibitor, single point]
20 | Cc1[nH]c(C)c(C(=O)/C=C/c2ccc([N+](=O)[O-])cc2)c1C | inconclusive [inhibitor, partial curve, poor fit]
21 | O=C1NC(=O)C(=Cc2ccc(N3CCN(C(=O)c4ccccc4)CC3)c([N+](=O)[O-])c2)C(=O)N1 | active: 11.2 µM
22 | O=C(O)c1cc(-c2ccc(/C=N/Nc3ccc(Cl)cc3)o2)ccc1Cl | inconclusive [inhibitor, partial curve]

Row | Structure (SMILES) | Potency
23 | CCOC(=O)N1CCN(C(=O)c2cnn3ccccc23)CC1 | inconclusive [inhibitor, partial curve]
24 | N#Cc1nc(Cc2ccccc2)oc1N1CCCC1 | inactive
25 | Cc1cc(C)cc(Nc2ccc([N+](=O)[O-])nc2[N+](=O)[O-])c1 | inconclusive [inhibitor, partial curve]
26 | CC(C)(C)NC(=O)NC(=O)CN1CCN(c2ccc(O)cc2)CC1 | inconclusive [inhibitor, partial curve]
27 | COc1ccc2c(c1)-c1nc(/N=C/c3c(O)ccc4ccccc34)sc1CC2 | inconclusive [inhibitor, partial curve]
28 | O=C(c1ccc2c(c1)N(Cc1ccc(F)cc1)CCS2)N1CCOCC1 | inactive
29 | COc1cc2c(cc1NC(=O)CSCC(=O)O)oc1ccccc12 | inactive
30 | CCOc1ccccc1C(=O)N(Cc1ccc(C)o1)C1CCS(=O)(=O)C1 (centres undefined) | inconclusive [inhibitor, full curve, poor fit]
31 | COc1cccc(NC(=S)NC(=O)Cc2ccc(Cl)cc2)c1 | inconclusive [inhibitor, full curve]
32 | CN(C)c1ccc(C(c2nnnn2C(C)(C)C)N2CCN(C(=O)c3ccco3)CC2)cc1 (centres undefined) | active: 15.8 µM
33 | CC(=O)c1ccc(NC(=O)CCSc2nc(-c3ccco3)cc(C(F)(F)F)n2)cc1 | inconclusive [inhibitor, full curve, poor fit]
34 | O=C(NCCCN1CCCC1=O)c1ccc2c(=O)n(Cc3ccco3)c(=S)[nH]c2c1 | inconclusive [inhibitor, partial curve]
35 | CCOC(=O)c1cnn2c(C(F)(F)F)cc(-c3ccccc3)nc12 | inactive
36 | S=C(NCCc1ccccc1)Nc1cnc2ccccc2c1 | inconclusive [inhibitor, partial curve]
37 | Cc1oc(-c2ccc(Cl)cc2)nc1CS(=O)CC(=O)NC1CCCCC1 (centres undefined) | active: 11.2 µM
38 | Cc1ccc(-n2nc(C)c(NC(=O)CCl)c2C)cc1 | active: 50.1 µM
39 | Cc1c(NS(=O)(=O)c2cc(C(=O)NCC3CCCO3)cc(Cl)c2Cl)c(=O)n(-c2ccccc2)n1C (centres undefined) | inconclusive [inhibitor, single point]
40 | O=[N+]([O-])c1ccc(CN2CCN(c3nc4ccccc4s3)CC2)cc1 | inconclusive [inhibitor, partial curve, poor fit]
41 | CN(C)CC(C(=O)c1ccccc1)c1ccccc1 (centres undefined) | active: 35.5 µM
42 | Cc1ccc(C(=O)O)cc1-c1ccc(/C=C2/NC(=O)N(c3ccccc3)C2=O)o1 | inconclusive [inhibitor, partial curve]
43 | COc1ccc(C2=NOC(Cn3nc(C(=O)NCc4ccc(OC(F)(F)F)cc4)cc3-c3ccccc3)C2)cc1 (centres undefined) | inactive
44 | O=C(COc1ccccc1)N(Cc1ccco1)C1CCS(=O)(=O)C1 (centres undefined) | inconclusive [inhibitor, partial curve]
